This is one part of the list.

To fix the notation:
B1: PhoQ; a variant is named by its letters at X, in order, P23837 (parent)
chain: MKKLLRLFFPLSLRVRFLLATAAVVLVLSLAYGMVALIGYSVSFDKTTFRLLRGESNLFYTLAKWENNKLHVELPENIDKQSPTMTLIYDENGQLLWAQRDVPWLMKMIQPDWLKSNGFHEIEADVNDTSLLLSGDHSIQQQLQEVREDDDDAEMTHSVAVNVYPATSRMPKLTIVVVDTIPVELKSSYMVWSWFIYVLSANLLLVIPLLWVAAWWSLRPIEALAKEVRELEEHNRELLNPATTRELTSLVRNLNRLLKSERERYDKYRTTLTDLTHSLKTPLXXLQXXLRSLRSEKMSVSDAEPVMLEQISRISQQIGYYLHRASMRGGTLLSRELHPVAPLLDNLTSALNKVYQRKGVNISLDISPEISFVGEQNDFVEVMGNVLDNACKYCLEFVEISARQTDEHLYIVVEDDGPGIPLSKREVIFDRGQRVDTLRPGQGVGLAVAREITEQYEGKIVAGESMLGGARMEVIFGRQHSAPKDE

This assay covers variants of B1. The assay can be described thus: enrichment ratio after two sorts for PhoP signalling (ratio (wild type AVST 3.29)); higher = more functional. The settings on record: with PhoP (E. coli).
On to DRCS, for which the enrichment ratio was at most 0.25. For HYWK, the enrichment ratio was at most 0.25.

Consider YCHP, for which the enrichment ratio was at most 0.25. As for SLIH, the enrichment ratio is at most 0.25. Under SLKG stands at most 0.25; under PLEA, at most 0.25; under ARMR, at most 0.25. Take WRPL: the enrichment ratio is at most 0.25. With LKKF the figure was at most 0.25; with RQPP, at most 0.25.

As for VPSV, the enrichment ratio was at most 0.25. Under STEP stands at most 0.25. As for HEYH, the enrichment ratio was at most 0.25. Under QTQK stands at most 0.25; under KMKY, at most 0.25; under TLIY, at most 0.25. With WNYA the figure was at most 0.25. With ASQA the figure was at most 0.25; with VGSC, at most 0.25; with GTLA, 6.81.

With QKRL, the enrichment ratio was at most 0.25. Consider EYRY, for which the enrichment ratio was at most 0.25. With WDDE the figure was at most 0.25; with WCWP, at most 0.25; with FISV, at most 0.25. With GYYV the figure was at most 0.25; with IERS, at most 0.25. Take YNYL: the enrichment ratio is at most 0.25. Turning to PIRM, the enrichment ratio is at most 0.25.

Take MTKY: the enrichment ratio is at most 0.25.

VHEC: the enrichment ratio was at most 0.25.

PVEM: the enrichment ratio is at most 0.25. With KGGI the figure was at most 0.25; with GWRI, at most 0.25; with PVTL, at most 0.25. With MMGS the figure was at most 0.25. Regarding THNK, the enrichment ratio is at most 0.25. Turning to HEVM, the enrichment ratio came to 24.4. As to INEN, the enrichment ratio is at most 0.25.

On to IKVY, for which the enrichment ratio is at most 0.25. Turning to AKSL, the enrichment ratio amounted to 7.13.

As to RAGE, the enrichment ratio was at most 0.25. In the case of HVSH, the enrichment ratio was at most 0.25. As to WHRA, the enrichment ratio is at most 0.25. Take YNQG: the enrichment ratio is at most 0.25. Consider HRPC, for which the enrichment ratio was at most 0.25. Under NGIW stands at most 0.25; under QSMM, at most 0.25; under MGMG, 42.5. For the variant EMIW, the enrichment ratio is at most 0.25.

NTRV: the enrichment ratio is at most 0.25. As to EMFW, the enrichment ratio was at most 0.25.

In the case of PVWY, the enrichment ratio was at most 0.25. With AICE the figure was 14.2; with WRHC, at most 0.25. Under RIPW stands at most 0.25. Under KTPP stands at most 0.25; under PKTK, at most 0.25; under FDKY, at most 0.25. As to YHNR, the enrichment ratio is at most 0.25. Under ADNM stands at most 0.25; under TGGR, at most 0.25; under FDYV, at most 0.25.

On to EMVG, for which the enrichment ratio is at most 0.25. With YLHD the figure was at most 0.25. Turning to DKFM, the enrichment ratio was determined as 0.939.

Regarding YCGD, the enrichment ratio is at most 0.25. Under TIIR stands at most 0.25; under SWEY, at most 0.25. With LWET the figure was at most 0.25.

QSSN: the enrichment ratio came to 4.53.

For DVMD, the enrichment ratio was at most 0.25.

Regarding HDEN, the enrichment ratio is at most 0.25. For the variant DAGC, the enrichment ratio was at most 0.25. Under TEGN stands 2.9; under MKTG, at most 0.25. Under MDIC stands at most 0.25; under GLQK, at most 0.25.

For the variant WQMK, the enrichment ratio is at most 0.25. For LQQW, the enrichment ratio was at most 0.25. With VSYV the figure was at most 0.25; with WLVA, at most 0.25. With AKCC the figure was 15.2; with WSLH, at most 0.25; with SGVM, 13.3. Consider EGAT, for which the enrichment ratio is at most 0.25. In the case of AHPG, the enrichment ratio was at most 0.25. As for HWAC, the enrichment ratio was at most 0.25. Consider WEGM, for which the enrichment ratio is at most 0.25. Take DDCN: the enrichment ratio was at most 0.25. Under HHVP stands at most 0.25; under RFWS, at most 0.25. Turning to HTLN, the enrichment ratio was at most 0.25. Turning to YFVE, the enrichment ratio was at most 0.25. Regarding MQTT, the enrichment ratio was at most 0.25. QQCH: the enrichment ratio is at most 0.25. Consider HSKL, for which the enrichment ratio was at most 0.25. For the variant ICPM, the enrichment ratio is at most 0.25. Under LITD stands at most 0.25.

As for RGES, the enrichment ratio was at most 0.25. Under WDGD stands at most 0.25. HDQR: the enrichment ratio is at most 0.25.

For the variant IMTT, the enrichment ratio was at most 0.25. Consider KPMV, for which the enrichment ratio is at most 0.25. Under NEWG stands at most 0.25.

Take HKSY: the enrichment ratio was at most 0.25. In the case of HYRF, the enrichment ratio is at most 0.25.

On to RHAN, for which the enrichment ratio is at most 0.25. AFWQ: the enrichment ratio is at most 0.25. Under SFLE stands at most 0.25; under MPMF, at most 0.25; under YTYY, at most 0.25. Under LSMP stands at most 0.25. In the case of FPVA, the enrichment ratio is at most 0.25. As to SGGV, the enrichment ratio was determined as 10.5. As to INIM, the enrichment ratio is at most 0.25. With VMED the figure was at most 0.25. As to LHYM, the enrichment ratio was at most 0.25. With WIPI the figure was at most 0.25. Under IHDD stands at most 0.25. Under STKR stands at most 0.25; under IGHL, at most 0.25; under VESE, at most 0.25.

Consider SLQP, for which the enrichment ratio is at most 0.25.

With KSSP, the enrichment ratio is at most 0.25. For VYNE, the enrichment ratio is at most 0.25. Turning to WPMP, the enrichment ratio is at most 0.25. Under QERL stands at most 0.25; under FLEH, at most 0.25.

As for HPHS, the enrichment ratio is at most 0.25.

As to ELCR, the enrichment ratio was at most 0.25. Consider IKWE, for which the enrichment ratio was at most 0.25.

For the variant KTSM, the enrichment ratio was at most 0.25.

Take WLMI: the enrichment ratio was at most 0.25.

Regarding ESCW, the enrichment ratio was at most 0.25.

As for VPSK, the enrichment ratio was at most 0.25. With KHWR, the enrichment ratio is at most 0.25. With FVHK the figure was at most 0.25; with WTAR, at most 0.25; with TNQV, 47.4. CVPS: the enrichment ratio was at most 0.25.

On to INHD, for which the enrichment ratio was at most 0.25. As to ENER, the enrichment ratio was at most 0.25. Under FWMM stands at most 0.25. Under FAGY stands at most 0.25; under FKDA, at most 0.25; under LGDY, at most 0.25. For the variant ACMF, the enrichment ratio was found to be 14.4. With VRVI the figure was at most 0.25.

As to IGKM, the enrichment ratio was at most 0.25. Take YAYF: the enrichment ratio is at most 0.25. With TMGI the figure was 20.6; with LQMF, at most 0.25.

(Values after a collection of fitness landscapes (doi:10.1126/science.1257360).)
